Reference: PubChem BioAssay AID1745853 (National Center for Advancing Translational Sciences (NCATS), 2022)
This is one part of the list. These are further read-outs of the screen, such as a control signal, another cell line or another target. No call is given for them.

Experiments:
Experiment in all cases: Primary Screen for Target Class Profiling of Small Molecule Inhibitors of Methyltransferases
[1] = molecular target: Glycine N-methyltransferase (Homo sapiens) (UniProt Q14749); details: purified enzyme, MTase-Glo SAH luminescence; measured here: GNMT inhibition; at 40 µM; stronger effect = lower value
Method in brief: (§1)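 Each enzyme was assayed with SAM and its substrate. SAH formation detected by MTase-Glo luminescence; single-point 40 uM screen[…].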

[2] = molecular target: Guanidinoacetate N-methyltransferase (Homo sapiens) (UniProt Q14353); details: purified enzyme, MTase-Glo SAH luminescence; measured here: GAMT inhibition; at 40 µM; stronger effect = lower value
Method in brief: as §1

[3] = molecular target: Histamine N-methyltransferase (Homo sapiens) (UniProt P50135); details: purified enzyme, MTase-Glo SAH luminescence; measured here: HNMT inhibition; at 40 µM; stronger effect = lower value
Method in brief: as §1

[4] = molecular target: Nicotinamide N-methyltransferase (Homo sapiens) (UniProt P40261); details: purified enzyme, MTase-Glo SAH luminescence; measured here: NNMT inhibition; at 40 µM; stronger effect = lower value
Method in brief: as §1

[5] = molecular target: Phenylethanolamine N-methyltransferase (Homo sapiens) (UniProt P11086); details: purified enzyme, MTase-Glo SAH luminescence; measured here: PNMT inhibition; at 40 µM; stronger effect = lower value
Method in brief: as §1
% is set by controls: 0 for no effect and ±100 for the full control effect.

| Compound | activity change, negative = inhibition [1] [%] | activity change, negative = inhibition [2] [%] | activity change, negative = inhibition [3] [%] | activity change, negative = inhibition [4] [%] | activity change, negative = inhibition [5] [%] |
| --- | --- | --- | --- | --- | --- |
| COc1ccccc1N1CCN(c2ncnc3n[nH]c(Br)c23)CC1 | -30 | -23.9 | -32.2 | -68.9 | -26.8 |
| CNC(=O)[C@@H]1CN(C(=O)CCc2ccc(OC)c(OC)c2)C[C@H]1CO | -2.35 | -6.47 | -3.06 | -11.2 | -10.5 |
| CCc1cc2c(cc3n2CC(C)(C(=O)NC2CCCCCC2)N(Cc2ccccc2Cl)C3=O)s1 (stereo not given) | 7.58 | 0.523 | 10.5 | 10.6 | 3.3 |
| CCCn1c(=O)c2ccc(Cl)cc2n2c(=O)n(CC(=O)Nc3cc(F)ccc3F)nc12 | -0.302 | 2.34 | 0.941 | 1.75 | -0.39 |
| CCOc1ccc(CN2C(=O)c3cc4ccccc4n3CC2(C)C(=O)NCc2ccccc2OC)cc1OC (stereo not given) | 0.81 | 5.83 | 3.62 | -5.82 | -0.425 |
| COc1cc(-c2cccc(O)c2)cc2c1OCO2 | 1.75 | 9.27 | 11.2 | -3.84 | 7.71 |
| CCCC1c2cccn2CCN1C(=O)Nc1ccc(C)cc1C (stereo not given) | -0.929 | 2.42 | -6.89 | 3.45 | 4.85 |
| O=C(c1c2ccccc2cc2ccccc12)N1CCC(N2CCC[C@@H](C(=O)N3CCOCC3)C2)CC1 | 6.21 | 6.58 | 5.45 | -12.3 | 3.43 |
| CCOc1cc(CN2CCC(C(Cc3ccccc3F)N(C)C(=O)c3cccs3)CC2)ccc1O (stereo not given) | -6.14 | -1.81 | -33.4 | -7.58 | -0.178 |
| CSc1ccc(CNC(=O)Cn2ccc3cc(S(=O)(=O)N4CCCCC4)ccc32)cc1 | 1.47 | 0.309 | 3.16 | -2.98 | 0.737 |
| Cc1ccc(NC(=O)c2ncn3c2C(=O)N(C2CC2)C(C)(C(=O)NCc2ccc(F)cc2)C3)c(C)c1 (stereo not given) | 1.2 | 0.795 | 12.5 | 8.24 | 8.39 |
| CCCn1c(=O)c2ccccc2n2c(=O)n(Cc3ccccc3C)nc12 | -3.79 | 6.11 | 4.24 | -7.25 | 3.08 |
| CC1(C(=O)NC2CCCCCCC2)Cn2c(cc3occc32)C(=O)N1CCCc1ccccc1 (stereo not given) | -10 | -0.081 | -2.73 | -4.78 | -3.79 |
| CCc1cc2c(-c3ccccc3)cc(=O)oc2cc1OCc1cc(C(=O)OC)oc1C | -3.74 | 0 | 3.55 | -1.27 | -2.69 |
| CCCN1C(=O)c2c(C(=O)NCCc3ccc(C)cc3)ncn2CC1(C)C(=O)NCc1ccc(OC)cc1 (stereo not given) | 0.385 | 0 | -2.77 | 1.81 | 1.32 |
| O=C(NC1CCCC1)N1CCC(Cc2nncn2CC2CC2)CC1 | -7.48 | -12.2 | -6.43 | -16.1 | -14.5 |
| O=C(C1CCOCC1)N1CCC(c2nc(C3CCOCC3)no2)CC1 | -3.38 | 0.988 | 3.37 | 3.75 | 5.41 |
| CC1(C)S[C@@H]2[C@H](NC(=O)[C@H](N)c3ccc(O)cc3)C(=O)N2[C@H]1C(=O)O | 3.4 | – | 5.2 | – | – |
| C=CCC1=C[C@]2(OC)[C@H](C)[C@@H](c3ccc(O)c(OC)c3)O[C@]2(OC)CC1=O | 0.298 | 6.74 | 5.32 | -5.54 | 7.57 |
| C#CCNC(=O)C1CCc2nnc(CNC(=O)c3ccc(Cl)cc3Cl)n21 (stereo not given) | -3.91 | -4.75 | -2.19 | -3.7 | -0.377 |
| c1ccc(-c2nc(CC3CCCNC3)no2)nc1 (stereo not given) | -4.11 | -9.26 | -6.11 | -4.87 | -4.33 |

| Compound | activity change, negative = inhibition [1] [%] | activity change, negative = inhibition [2] [%] | activity change, negative = inhibition [3] [%] | activity change, negative = inhibition [4] [%] | activity change, negative = inhibition [5] [%] |
| --- | --- | --- | --- | --- | --- |
| CCCOc1ccc(CN2C(=O)c3cc4oc(C)cc4n3CC2(C)C(=O)NC2CCCCCC2)cc1 (stereo not given) | 4.35 | 1.74 | 8.79 | 5.69 | 1.9 |
| O=C(Cn1ccc2cc(S(=O)(=O)N3CCCCC3)ccc21)NC1CCN(Cc2ccccc2)CC1 | 6.22 | 1.71 | -23 | 7.05 | 4.37 |
| Cn1cnc2c(NCc3ccccc3)nc(NCCO)nc21 | 4.31 | 9.61 | 11 | -9.11 | -0.745 |
| Cc1nc(C(C)C)ncc1C(=O)N1CCC2(CCCN(C)C2=O)C1 (stereo not given) | 0.319 | -0.377 | 2.11 | 1.01 | 0.72 |
| Cc1cnc(C(=O)N(C)C2CCc3nn(CC4CC4)c(=O)n3CC2)cn1 (stereo not given) | 3.18 | 1.74 | 0.216 | 6.29 | 0.921 |
| Cc1ccc(C(=O)Cn2nc3n(C(C)C)c(=O)c4ccc(C(=O)NC5CCCCC5)cc4n3c2=O)cc1 | 5.55 | 1.25 | 8.18 | 5.27 | 7.13 |
| CN(CC(=O)N1CCC(Cc2ccccc2)CC1)S(=O)(=O)c1ccc2[nH]c3c(c2c1)CCCC3 | -9 | 0.571 | -4.78 | -10.4 | -2.02 |
| CCCn1c(=O)c2ccc(C(=O)NC(C)C)cc2n2c(=O)n(CC(=O)Nc3cccc(Cl)c3)nc12 | 5.21 | 0 | 3.1 | 2.94 | 3.98 |
| O=C(c1ccc(C2CCCNC2)cc1)N1CCN(c2ccncc2)CC1 (stereo not given) | -3.63 | -5.62 | -83.9 | -8.23 | -9.61 |
| CC1CC(C)CN(S(=O)(=O)c2ccc3c(c2)oc(=O)n3CC(=O)NCc2ccccc2)C1 (stereo not given) | -7.87 | 3.29 | 0.546 | 0.156 | -5.95 |
| NC(=O)c1ccc(NC(=O)Cn2nc3c(cc2=O)CCCCC3)cc1 | -11.7 | -7.31 | -4.75 | -13.2 | -1 |
| Cc1nc(Nc2cnn(C3CCNCC3)c2)nc2c1N(C)C(=O)c1cc3ccccc3cc1N2C | -10.5 | -4.23 | -43.7 | -31.4 | -7.14 |
| CCOC(=O)c1cc2n(n1)CC(C)(C(=O)NCCOC)N(c1ccc(F)cc1)C2=O (stereo not given) | 8.43 | 2.04 | 10.2 | 8.97 | 5.76 |
| O=C(CCn1ccc2cc(S(=O)(=O)N3CCCCC3)ccc21)N1CCCC1 | -1.54 | -2.23 | -2.82 | -2.67 | -3.57 |
| Cc1ccccc1CCNC(=O)Cn1ccc2cc(S(=O)(=O)N3CCC(C)CC3)ccc21 | 6.41 | 1.16 | 1.47 | 2 | -2.26 |
| CCOC(=O)c1cc2n(n1)CC(C)(C(=O)NCc1ccc(F)cc1)N(Cc1ccc(SC)cc1)C2=O (stereo not given) | -0.066 | 5.18 | 5.24 | -4.87 | 0.099 |
| CCOC(=O)C(Cc1c[nH]c2ccccc12)NC(=O)c1ccco1 (stereo not given) | -2.14 | 3.75 | 4.81 | -2.31 | -0.457 |
| CCOC(=O)C1CCN(C(=O)c2cn3ccnc(-c4ccc(C)cc4)c3n2)CC1 | -8.63 | -6.7 | -1.41 | -15.2 | -1.03 |
| O=C1NCCCCCN(C(=O)C2CCC2)[C@H]2CCCC[C@@H]12 | -2.37 | -2.7 | 0.712 | -1.97 | 11.9 |
| O=C(Cc1cc2c(cc1Cl)OCCO2)N[C@@H]1COCC[C@@H]1OCC1CC1 | -4.39 | -5.12 | -1.68 | -7.35 | 3.03 |
| COC1C(CO)OC(n2cnc3c(=O)[nH]cnc32)C1O (stereo not given) | -2.25 | -0.143 | 11.1 | -13.4 | -13.1 |

| Compound | activity change, negative = inhibition [1] [%] | activity change, negative = inhibition [2] [%] | activity change, negative = inhibition [3] [%] | activity change, negative = inhibition [4] [%] | activity change, negative = inhibition [5] [%] |
| --- | --- | --- | --- | --- | --- |
| Cc1cc2c(cc1C(=O)N[C@H](c1ccccn1)C1CC(O)C1)OCCO2 (stereo not given in full) | -2.49 | -5.43 | -5.17 | -5.92 | -7.23 |
| CCc1cc(S(=O)(=O)O)c2cc(C(C)C)cccc1-2 | -10.3 | -6.91 | 6.04 | -17.4 | -0.173 |
| CC1CCCCC1NC(=O)C1(C)Cn2c(cc3sccc32)C(=O)N1Cc1ccccc1Cl (stereo not given) | 2.71 | 1.16 | 7.33 | -3.52 | 0.449 |
| NC(=O)CN1CCC(C(=O)N2CCCC(CO)(CC3CC3)C2)CC1 (stereo not given) | -1.7 | 1.27 | 1.52 | 0.673 | -6.85 |
| C=C1CCC2C(C)(C)CC(O)CC2(C)C1CCC(C)CCOC(=O)CCC(=O)O (stereo not given) | -10.8 | 0.514 | 11.5 | -22.9 | -11.7 |
| CCCC1c2ccc(C)n2CCN1C(=O)Nc1ccc(C)cc1 (stereo not given) | 1.54 | 0 | -1.48 | 1.52 | -0.268 |
| Oc1cccc(-c2nc(N3CCOCC3)c3sccc3n2)c1 | – | -7.22 | – | -28.2 | -14 |
| CC1(C(=O)NC2CCCC2)Cn2c(cc3ccccc32)C(=O)N1Cc1ccc(F)cc1 (stereo not given) | -5.1 | 5.03 | -2.16 | -6.44 | -1.39 |
| CC1(C(=O)O)CCCC2(C)C1CCC13CC(CCC21)C1(CO)OC31 (stereo not given) | -1.43 | -3.54 | -47.7 | -15.8 | -1.4 |
| COc1ccc(OC)c(CN2C(=O)c3ccc(-c4ccco4)n3CC2(C)C(=O)NC2CCCCC2)c1 (stereo not given) | -1.78 | 0 | -1.52 | 2.88 | 0.057 |
| COc1ccc2c(c1)c(-n1cccc1)c1n2CC(C)(C(=O)NC2CCCCCC2)N(Cc2ccc(C)cc2)C1=O (stereo not given) | -1.96 | 0 | 3.17 | -0.073 | -0.759 |
| CC(C)(CNC(=O)c1cccc(-c2noc(C(F)(F)F)n2)c1)c1coc(-c2ccccc2)n1 | -3.79 | -5.84 | 9.99 | -24.2 | -7.04 |
| CC(C)OCCCNC(=O)CCc1nnc2n(Cc3ccc(Cl)cc3)c(=O)c3ccccc3n12 | -2.83 | 2.25 | 2.62 | 2.89 | -0.805 |
| CCCC1c2cccn2CCN1C(=O)Nc1ccc(OCC)cc1 (stereo not given) | 1.59 | 1.78 | -2.35 | 5.14 | 9.46 |
| CCOc1cccc(CNC(=O)c2nnn3c2COC(c2ccc(C)cc2)C3)c1 (stereo not given) | -6.6 | -4.66 | -4.67 | -5.02 | -4.09 |
| c1ccc(Cn2cc(CN3CCN(c4ccncc4)CC3)c(-c3cc4ccccc4o3)n2)cc1 | -11 | 1.25 | -56.3 | -15.8 | 6.04 |
| COCCc1noc(C2Cc3ccccc3N2C(=O)Nc2ccc3c(c2)OCCO3)n1 (stereo not given) | -6.51 | -6.14 | -2.67 | -7.83 | -6.92 |
| Fc1cccc(-c2nnn3c2nc(NCc2ccc4c(c2)OCO4)c2cc(Cl)ccc23)c1 | -2.31 | 4.96 | -0.338 | -1.97 | -0.844 |
| Cn1nnc(-c2ccc(-c3ccc(N4C[C@H](COP(=O)(O)O)OC4=O)cc3F)cn2)n1 | -20.4 | 7.01 | -1.24 | -15.2 | -8 |
| COCCNC(=O)C[C@@H]1C[C@H]2O[C@H](CNCc3cccnc3OC)[C@@H](O)[C@H]2O1 | -5.89 | -12.3 | -3.5 | -12.6 | -12.2 |
